Data on 48 compounds can be found in PubChem BioAssay AID1508642 (National Center for Advancing Translational Sciences (NCATS), 2021).

The structures appear in SMILES notation. Screen size: about 43,000 compounds; about 200 (0.47%) were called active. Roughly 12% stayed inconclusive and do not appear here. Calls follow the shape of the dose curve; as a rule, active = well fitted cell-killing curve with a large enough effect; inconclusive = small, poorly fitted or top-dose-only effect, or effect the other way; inactive = flat fitted curve, though single readings scatter. The list shows a part of the results.
% is scaled to controls: 0 for no effect and ±100 for the full control effect.

The nature of this experiment: Cell viability qHTS assay in S16 Pmp22-F2sN cells. Also: nearly all actives have a fitted effect of over 65% in size. To be noted: S16 Pmp22-F2sN Schwann cells (luciferase reporters placed in the Pmp22 gene) viability, CellTiter-Glo, 24 h; series mostly up to 57.5 µM; activity change, negative = cytotoxicity: at the top concentration. Summed up:
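Rat S16 Schwann reporter line, 24 h treatment with library compounds delivered at 23 nL per well. Cell viability by CellTiter-Glo luminescence.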
(qHTS replaces the single test concentration by a dilution series.)
Take `CCc1ccccc1NC(=O)c1cc2nc(-c3ccc(Br)cc3)cc(C(F)(F)F)n2n1`: the “activity change, negative = cytotoxicity” value was inactive: -24.2%. As to `CC(C)c1nc2ccc(C(=O)NCc3ccccc3Br)cc2o1`, the “activity change, negative = cytotoxicity” value was inactive: -4.68%. As to `COc1ccccc1S(=O)(=O)Cc1ccc(C(=O)N2CCN(c3cc(Cl)ccc3C)CC2)o1`, the “activity change, negative = cytotoxicity” value is inactive: -6.27%. With `CCc1ccccc1NC(=O)COCc1cc(-c2ccco2)on1`, the “activity change, negative = cytotoxicity” value was inactive: -2.41%. In the case of `CCOc1ccc(OCC)c(NC(=O)C2CCN(S(=O)(=O)c3ccc4c(c3)CC(C)N4C(C)=O)CC2)c1` (stereo not drawn), the “activity change, negative = cytotoxicity” value is inactive: 16.6%. Turning to `Cc1ccc2occ(CC(=O)N(Cc3ccc(Cl)cc3)Cc3ccco3)c2c1`, the “activity change, negative = cytotoxicity” value is inactive: -23.1%. Then `Cc1ccc(N2C(=O)[C@@H]3CSC(c4ccc(Cl)cc4)N3C2=O)cc1` (stereo partly drawn), with inactive: -1.25%; and `CCOc1ccc2c(c1)c(=O)c(C(=O)c1ccc(CC)cc1)cn2CC(=O)Nc1cccc(Cl)c1`, with inactive: 4.64%; and `Cc1cc(C)c(Cn2c(=O)n(CCC(=O)NCc3ccc4c(c3)OCO4)c(=O)c3ccccc32)c(C)c1`, with inactive: 24.1%.

Take `COCCNC(=O)Cn1nc(-c2ccc(C)cc2)c2ccccc2c1=O`: the “activity change, negative = cytotoxicity” value is inactive: 4.54%. Then `Cc1cccc(NC(=O)c2ccc(CN3CC(=O)N4CCCCC4C3=O)cc2)c1C` (stereo not drawn), with inactive: 12%; and `Cc1ccc2oc(-c3cccc(NC(=O)c4cccc5c(Cl)cccc45)c3)nc2c1`, with inactive: 19.4%; and `CCCCn1c(CCCNC(=O)c2cccc(C)c2)nc2ccccc21`, with inactive: -19.7%.

Consider `COc1cccc(Cn2nnc3c(=O)[nH]c(C4CCCN(C(=O)c5ccccc5Cl)C4)nc32)c1` (stereo not drawn), for which the “activity change, negative = cytotoxicity” value was inactive: -28.1%. On to `COc1ccc(CNc2nc(-c3ccc(Cl)cc3)cc(C(F)(F)F)n2)cc1`, for which the “activity change, negative = cytotoxicity” value was inactive: 15.9%. Under `Cc1cccc(NC(=O)C(=O)NCCCN2CCOCC2)c1` stands inactive: -2.83%. As for `COc1ccc(NC(=O)c2nc(SCc3ccc(F)cc3)ncc2Cl)cc1`, the “activity change, negative = cytotoxicity” value is inactive: 4.78%. On to `CCOc1ccc(NC(=O)c2sc(-n3nc(C)c(CCC(C)C)c3C)nc2C)cc1`, for which the “activity change, negative = cytotoxicity” value is inactive: 7.97%.

For `CCOc1ccccc1NC(=O)CSc1ncc2c(n1)-c1ccccc1N(CC)S2(=O)=O`, the “activity change, negative = cytotoxicity” value was inactive: -3.53%. Under `COc1ccc(CNCc2ccc(C(=O)O)s2)cc1` stands inactive: 2.28%.

For the compound `CCCCOC(=O)CSc1ncnc2sc3c(c12)CCC(C)C3` (stereo not drawn), the “activity change, negative = cytotoxicity” value was inactive: -2.9%. Turning to `C=Cc1ccc(Cn2c(C(=O)O)c(CNCCc3ccco3)c3ccc(C)cc32)cc1`, the “activity change, negative = cytotoxicity” value was inactive: -16.9%.

Consider `COC(=O)c1cc2sccc2n1Cc1nc(-c2cccc(Cl)c2)oc1C`, for which the “activity change, negative = cytotoxicity” value was inactive: -1.07%. Under `CC1=C(c2ccc(C)cc2)S(=O)(=O)NC1=NCc1ccccc1Cl` stands inactive: -18.9%; under `CCC(C)Nc1nc2c(c(=O)[nH]c(=O)n2C)n1Cc1ccc(F)cc1` (stereo not drawn), inactive: -1.96%; under `CCOc1ccccc1CNC(=O)c1ccc2nc(N3CCC(C)CC3)sc2c1`, inactive: -2.86%. For the compound `Cc1ccc(-n2ncc3c(NCCc4ccc(S(N)(=O)=O)cc4)ncnc32)cc1`, the “activity change, negative = cytotoxicity” value is inactive: 2.66%. In the case of `CCN(C(=O)Cn1c(=O)oc2cc(S(=O)(=O)N3CCCCCC3)ccc21)c1cccc(C)c1`, the “activity change, negative = cytotoxicity” value was inactive: 21.8%. With `O=C(NCc1ccccc1)NC1COc2ccccc2C1` (stereo not drawn), the “activity change, negative = cytotoxicity” value was inactive: 3.38%. On to `Cn1cc(S(=O)(=O)N2CCCCCC2)cc1C(=O)NCc1ccc(F)cc1`, for which the “activity change, negative = cytotoxicity” value is inactive: 2.64%. Then `Cc1cccc(OC(=O)c2snnc2C)c1`, with inactive: -1.21%; and `Cc1cccc(C)c1Nc1c(-c2ccccn2)nc2ccc(Cl)cn12`, with inactive: 13.7%; and `Cc1ccc(S(=O)(=O)Nc2cc(Cl)c3oc4c(c3c2)CCCC4)cc1`, with inactive: 28.3%.

In the case of `Cc1c(-c2nsc(NC(=O)c3cccs3)n2)nnn1-c1ccc(F)cc1`, the “activity change, negative = cytotoxicity” value is inactive: -1.36%. On to `COc1ccccc1CNC(=O)CCS(=O)(=O)c1ccc2c(c1)oc(=O)n2C`, for which the “activity change, negative = cytotoxicity” value was inactive: -9.31%. With `O=C(COc1ccccc1F)Nc1ccc2nc(SCC(=O)N3CCOCC3)sc2c1`, the “activity change, negative = cytotoxicity” value is inactive: -2.11%.

Take `O=S(=O)(c1ccccc1)c1nc(-c2ccc(F)cc2)oc1NCc1ccccc1`: the “activity change, negative = cytotoxicity” value is inactive: 18.9%. In the case of `COc1ccc(CNC(=O)CCCc2nnc3n(C(C)C)c(=O)c4sccc4n23)cc1`, the “activity change, negative = cytotoxicity” value was inactive: 4.31%. For `CC(C)Oc1ccc(C(=O)N(Cc2ccc(N(C)C)cc2)Cc2ccco2)cc1`, the “activity change, negative = cytotoxicity” value was inactive: -9.6%. For `Cc1c(C)n(Cc2ccccc2)c2ccc(C(=O)N3CCN(c4ccccc4)CC3)cc12`, the “activity change, negative = cytotoxicity” value was inactive: -0.246%.

Take `CCN(CC)S(=O)(=O)c1ccc2c(c1)N(CC(=O)Nc1c(C)cccc1C)C(=O)C1CCCN21` (stereo not drawn): the “activity change, negative = cytotoxicity” value was inactive: 7.75%.

For the compound `CCOC(=O)c1oc2c(c1C)-c1nn(Cc3cccc(Cl)c3)cc1CC2`, the “activity change, negative = cytotoxicity” value is inactive: -13.2%. Consider `COc1cc(NC(=O)CN2CCCN(Cc3cccc(F)c3)S2(=O)=O)cc(OC)c1`, for which the “activity change, negative = cytotoxicity” value is inactive: -0.551%.

Consider `CCOC(=O)c1c(C)oc2nc(C)nc(NCCc3ccc(C)cc3)c12`, for which the “activity change, negative = cytotoxicity” value is inactive: 3.9%. Turning to `CCOc1ccc(NC(=O)CSc2oc(-c3ccco3)nc2S(=O)(=O)c2ccccc2)cc1`, the “activity change, negative = cytotoxicity” value was inactive: -0.6%. For the compound `Cc1ccc(NC(=O)c2oc3ccc(S(=O)(=O)N(C)C4CCCCC4)cc3c2C)c(C)c1`, the “activity change, negative = cytotoxicity” value is inactive: -12.6%. Then `CCCNC(=O)c1cc2n(n1)CCCN(Cc1ccc(C)cc1)C2=O`, with inactive: 7.17%; and `Cc1ccc(CN2C(=O)c3ccccc3Sc3ccc(C(=O)N4CCOCC4)cc32)cc1`, with inactive: 11.2%.
